This passage reports IC50 results from US5877202A, “Indole derivatives useful to treat estrogen-related neoplasms and disorders” (priority 1996, dated 1999).

The structures appear in SMILES notation.

This assay deals with estradiol-dependent luciferase reporter plasmid in MCF-7 cells. Put plainly: Inhibition of estradiol-stimulated transcription of luciferase reporter plasmid in MCF-7 cells. Type of assay: cell-based. As to conditions: Homo sapiens, MCF7, 18 to 22 hr. From the text: Shapiro, D. J., et al., Prog.
On the technique in general: A reporter such as luciferase makes a cellular process visible.
On to `CCCCN(C)C(=O)CCCCCCCNC(=O)Cc1c(C)n(C(=O)c2ccc(Cl)cc2)c2ccc(O)cc12` [MDL 101,906, 8-[[5-Hydroxy-1-(4-chlorobenzoyl)-2-methyl-1H-indol-3-yl]-acetylamino]-octanoic acid methyl-butyl-amide], for which the IC50 (commonly the concentration that gives 50% inhibition) was found to be 5.2 µM. That is a single-digit micromolar value.

Consider `CCCCN(C)C(=O)CCCCCCCNC(=O)Cc1c(-c2ccc(O)cc2)n(Cc2ccccc2)c2ccc(O)cc12` [MDL 103,324, 8-[[5-Hydroxy-1-benzyl-2-[(4-hydroxy)-phenyl]-1H-indol-3-yl]-acetylamino]-octanoic acid methyl-butyl-amide], for which the IC50 came out at 2.7 µM.

Take `CCCCN(C)C(=O)CCCCCCCNC(=O)Cc1c(C)n(C(=O)c2ccccc2)c2ccc(O)cc12` [MDL 105,813, 8-[[5-Hydroxy-1-benzoyl-2-methyl-1H-indol-3-yl]-acetylamino]-octanoic acid methyl-butyl-amide]: half-maximal inhibition (IC50) required 8.4 µM.
